# In paper PMC4336329 (PLoS ONE, 2015):
# Out of some 310,000 compounds screened, about 14,000 (4.5%) showed an effect of 50% or more. Effects have a minus sign here. The list shows a part of the results.
# Molecular target: human ether-à-go-go-related gene (hERG) potassium channel (human, UniProt Q12809)
# Experiment: primary screen, population patch clamp on CHO cells stably expressing hERG
# 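Further: peak tail current of the secondary pulse compared with the same well before compound.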
# Sequence of human ether-à-go-go-related gene (hERG) potassium channel (Q12809 whole entry, looked up): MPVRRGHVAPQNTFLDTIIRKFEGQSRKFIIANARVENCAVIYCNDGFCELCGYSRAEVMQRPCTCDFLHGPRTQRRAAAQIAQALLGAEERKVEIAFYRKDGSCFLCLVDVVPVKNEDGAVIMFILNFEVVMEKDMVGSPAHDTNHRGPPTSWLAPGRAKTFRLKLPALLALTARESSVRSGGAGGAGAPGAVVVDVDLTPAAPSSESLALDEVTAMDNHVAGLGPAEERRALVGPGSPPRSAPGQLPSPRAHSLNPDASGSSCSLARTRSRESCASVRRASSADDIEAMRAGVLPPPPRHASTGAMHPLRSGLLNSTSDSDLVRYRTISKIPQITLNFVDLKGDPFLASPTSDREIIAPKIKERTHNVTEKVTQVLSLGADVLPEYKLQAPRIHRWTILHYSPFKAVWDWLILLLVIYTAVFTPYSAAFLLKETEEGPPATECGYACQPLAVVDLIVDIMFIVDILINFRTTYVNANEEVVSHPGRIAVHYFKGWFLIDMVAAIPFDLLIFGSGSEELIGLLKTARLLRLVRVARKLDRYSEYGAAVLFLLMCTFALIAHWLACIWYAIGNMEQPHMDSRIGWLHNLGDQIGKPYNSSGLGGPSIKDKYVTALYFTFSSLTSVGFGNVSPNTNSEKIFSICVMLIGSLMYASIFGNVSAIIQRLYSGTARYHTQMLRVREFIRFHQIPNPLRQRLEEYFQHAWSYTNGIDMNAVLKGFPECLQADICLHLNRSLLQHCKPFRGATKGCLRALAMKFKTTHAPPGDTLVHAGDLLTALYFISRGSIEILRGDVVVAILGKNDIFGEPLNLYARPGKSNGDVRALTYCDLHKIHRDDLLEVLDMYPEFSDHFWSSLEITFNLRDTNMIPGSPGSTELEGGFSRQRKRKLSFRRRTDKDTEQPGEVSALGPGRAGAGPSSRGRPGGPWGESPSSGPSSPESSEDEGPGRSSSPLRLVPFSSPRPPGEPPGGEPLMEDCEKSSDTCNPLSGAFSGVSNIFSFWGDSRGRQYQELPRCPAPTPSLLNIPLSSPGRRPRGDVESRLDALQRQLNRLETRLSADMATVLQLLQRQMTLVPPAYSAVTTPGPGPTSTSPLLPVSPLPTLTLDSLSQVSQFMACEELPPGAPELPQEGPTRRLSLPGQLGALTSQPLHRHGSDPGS
row,SMILES,"hERG current change (%, negative = inhibition) at 10uM [%]"
1,CSCCC(NC(=O)c1ccco1)C(=O)OCc1cc([N+](=O)[O-])cc2c1OCOC2 (stereo not drawn),-45.8
2,COc1cccc(/C=N/Nc2snc(SC)c2C#N)c1O,17.6
3,COc1cc(OC)cc(C(=O)N[C@H](C(=O)OCC(=O)Nc2ccc(C(C)C)cc2)C(C)C)c1,8.19
4,Cc1cc(NC(=O)CS(=O)(=O)c2cn(Cc3ccccc3Cl)c3ccccc23)no1,-1.29
5,CN(C)CCCn1c(N)c(S(=O)(=O)c2ccccc2)c2nc3ccccc3nc21,-51.1
6,CC(=O)c1cc2c(cc1NC(=O)CN1Cc3ccccc3C1=O)OCO2,3.08
7,COC(=O)c1ccc(NC(=O)CN(c2ccc3c(c2)OCO3)S(C)(=O)=O)cc1,-1.62
8,Cc1ccc(-c2ccc(NC(=O)C3C4C=CC(C4)C3C(=O)O)cc2)o1 (stereo not drawn),22.1
9,O=C(COc1ccc(Cl)cc1)NCCNC(=O)c1cnccn1,5.3
10,COc1cccc(CN2CCNC(=O)C2CC(=O)N(C)Cc2cnccn2)c1OC (stereo not drawn),32.6
11,O=C(NCC1CCCCC1)c1cccnc1,27.1
12,COc1ccc(NC(=O)c2ccc(NC(=O)C3CC3)cc2)cc1,3.05
13,O=C1CCCN2N=C(SCC(=O)Nc3cccc(F)c3)SC2=N1,-20.5
14,CC(=O)Nc1ccc(SCC(=O)Nc2cc(C)on2)cc1,13.7
15,Cc1c(C(=O)N2CCCC2)c(S(=O)(=O)Nc2ccccc2)c(C)n1C,14.5
16,CC(C)n1nc(Cc2cccc3ccccc23)c(C#N)c1N,-11.8
17,CCC(C)N(C(=O)CCC(=O)Nc1cc(C)on1)C(C(=O)NC(C)(C)C)c1ccccc1Cl (stereo not drawn),-11.3
18,CCOC(=O)CN(C)C(=O)CCc1nnc(-c2ccsc2)o1,13.4
19,COc1ccc(CN(CC(=O)NC2CCCCC2)C(=O)CCCC(=O)Nc2ccccn2)cc1,-11.6
20,COc1ccc2oc(C(=O)OCC(=O)N3CCCC3=O)c(C)c2c1,12.3
21,COc1ccc(C2=CC(=O)C[C@H](c3ccc(OC)cc3)C2)cc1,-33
22,Cc1c(C)c2ccc(OC(C)C(=O)N3C[C@H]4C[C@@H](C3)c3cccc(=O)n3C4)c(C)c2oc1=O (stereo partly drawn),16.8
23,COC(=O)C1=C(N)OC2=C(C(=O)CC(C)(C)C2)C1c1ccccc1OCC#N (stereo not drawn),9.37
24,O=S(=O)(c1cc(Cl)ccc1Br)N1CCCCC1,-22.9
25,NC(=O)c1ccccc1N=Cc1ccc2ccccc2c1,18.3
26,CCOC(=O)c1c(NC(=O)CCC(=O)NCc2ccco2)sc2c1CCCC2,11.3
27,C/C(O)=C(/C=NCC(=O)O)C(=O)Nc1nccs1,7.41

row,SMILES,"hERG current change (%, negative = inhibition) at 10uM [%]"
1,O=C(CN1CCN(Cc2ccccc2Cl)CC1)N/N=C/C=C/c1ccccc1[N+](=O)[O-],-71.6
2,CC(C(=O)NCc1ccccc1)N(Cc1ccccc1Cl)C(=O)c1snc(C(N)=O)c1N (stereo not drawn),-0.541
3,O=C(Nc1ccccc1Oc1cccnc1)C1CCCN(Cc2cccc(Cl)c2)C1 (stereo not drawn),-30.2
4,COC(=O)[C@@]1(Cc2ccc(OC)cc2)[C@H]2c3cc(C(=O)N4CCCC4)n(CCO)c3C[C@H]2CN1C(=O)c1ccccc1,-34.9
5,Cc1ccc(S(=O)(=O)N2CCC(C(=O)NNC(=O)c3ccncc3)CC2)cc1,18.6
6,CCCNC(=O)COc1nc2ccccc2nc1N1CCOCC1,13.4
7,COc1cc(OC)c(C(=O)OCC(=O)N2CCOCC2)cc1OC,7.28
8,CC(=O)NC1CC2CCCC(C1)N2C(=O)Nc1ccc(Cl)c(C(F)(F)F)c1 (stereo not drawn),-3.34
9,CCOC(=O)C(C)Oc1ccc2c(-c3cccc([N+](=O)[O-])c3)cc(=O)oc2c1 (stereo not drawn),-62.4
10,CCC(CC)C(=O)Nc1cccc(C(=O)c2ccccc2)c1,-28.1
11,CCCCc1c(O)nc(SCC(=O)Nc2cccc3ccccc23)n(-c2ccccc2OC)c1=O,3.39
12,CC(C)CC(NC(=O)C1CCC(C)CC1)C(=O)Nc1ccccc1F (stereo not drawn),14.1
13,O=C(NCc1ccccc1)C(c1cccs1)N(C(=O)c1csnn1)C1CC1 (stereo not drawn),-15
14,CCC(C(=O)OCC(=O)N1C(C)CCCC1C)c1ccccc1 (stereo not drawn),1.72
15,COCCCNC(=O)CCC(=O)NNc1nc2ccccc2c2nc(-c3ccccc3)nn12,-40.5
16,CN(CC(=O)Nc1cccc(F)c1)C(=O)c1ccccc1OCC(=O)Nc1cccc(C(F)(F)F)c1,-1.87
17,O=C(CN1CCN(c2ccc(F)cc2)CC1)Nc1ccccc1,6.74
18,C=CCOc1ccc(Br)cc1/C=N/O,-1.48
19,CCCCn1c(=N)n(CC(O)COc2ccccc2)c2ccccc21 (stereo not drawn),-73.1
20,O=C(CCC(=O)N1CC2C[C@@H](C1)Cn1c2cccc1=O)NCCc1ccccc1,-3.02
21,COc1ccc(C2=NS(=O)(=O)N(C)C(C(=O)NCc3ccc4c(c3)OCO4)=C2)cc1OC,-34.9
22,Cc1cccn2c(=O)c3cc(C(=O)NC(C)C)c(=N)n(Cc4ccncc4)c3nc12,-72.4
23,COc1cccc(NC(=O)COC(=O)c2ccccc2SCC(=O)N2CCCC2)c1,-5.38
24,Cc1cc(=O)n2[nH]c(-c3ccccc3Cl)cc2n1,8.79
25,COc1cccc(NC(=O)c2oc3ccccc3c2NC(=O)c2ccc3c(c2)OCO3)c1,5.18
26,O=C(NCc1ccccc1)C1CCCN(S(=O)(=O)c2cccc3nonc23)C1 (stereo not drawn),9.65
27,O=C(CCC1CCCN(C(=O)c2ccncc2)C1)NCc1ccc(F)c(F)c1 (stereo not drawn),-1.99
